According to the supplement of paper PMC3334620:
Whole data set: some 33,000 sequences, median “E-score (-0.5 to 0.5)” near -0.035, cut for the highest 2% near 0.34. Some of the results follow.

Molecular target: T1, Mot3 (UniProt P54785)
T1 sequence: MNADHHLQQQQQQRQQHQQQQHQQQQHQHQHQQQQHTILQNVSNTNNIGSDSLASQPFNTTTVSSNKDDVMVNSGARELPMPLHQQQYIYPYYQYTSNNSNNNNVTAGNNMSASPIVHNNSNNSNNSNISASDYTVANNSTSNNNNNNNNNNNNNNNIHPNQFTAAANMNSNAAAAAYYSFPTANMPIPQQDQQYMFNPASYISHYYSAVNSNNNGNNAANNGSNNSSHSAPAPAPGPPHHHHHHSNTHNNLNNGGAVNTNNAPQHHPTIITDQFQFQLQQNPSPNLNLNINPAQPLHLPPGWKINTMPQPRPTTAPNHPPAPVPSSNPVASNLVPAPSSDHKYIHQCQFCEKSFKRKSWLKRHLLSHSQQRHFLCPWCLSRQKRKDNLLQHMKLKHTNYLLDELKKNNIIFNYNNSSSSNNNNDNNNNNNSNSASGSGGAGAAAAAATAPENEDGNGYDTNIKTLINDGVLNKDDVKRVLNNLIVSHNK
Experiment: PBM E-score (8-mer binding enrichment) (E-score (-0.5 to 0.5)); higher = stronger / more preferred TF binding; most listed sequences are background and not binding sites
Conditions: protein concentration: 200 nM; construct: GST-full length
In short: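 Masliner-normalised scans of fluorescent anti-GST signal were the basis for scoring. That signal came from GST-tagged yeast transcription factors applied at about 100-200 nM to double-stranded universal all-10-mer Agilent arrays on fresh or once-stripped slides. Each ungapped eight-base word, pooled with its reverse complement, received an E-score from the Universal PBM Analysis Suite.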

Row | Sequence | PBM E-score
1 | GCTACCAC | -0.216
2 | TGCGTGAA | 0.23
3 | CGAAACAG | -0.182
4 | AACTCTCC | -0.163
5 | AGACATGC | 0.0904
6 | CGCTATGA | 0.0422
7 | ATGCTAGG | 0.0854
8 | AGTCGGAT | -0.141
9 | AGTAGTTA | 0.105
10 | GTAAAACA | 0.29
11 | CTCGAGAA | 0.0391
12 | CGGCATCA | -0.0726
13 | GCTGGTAA | -0.112
14 | AGAGGTAG | 0.0368
15 | TATAAAAA | 0.249
16 | CAATGAGC | -0.234
17 | AAGTCATT | -0.0638
18 | CGAGCCCA | -0.188
19 | AGTCGCCC | -0.278
20 | ACCGCTAC | -0.303
21 | CGGCGTCC | -0.218
22 | TGATCCAA | -0.071
23 | AATGACGT | 0.0289
24 | CATCCGCG | 0.0938
25 | ATAGCTAT | -0.0712

Row | Sequence | PBM E-score
26 | AAGTACTA | 0.185
27 | AAGTGGCC | -0.114
28 | ATTGCGTA | 0.217
29 | CTTGAAGA | -0.116
30 | ACAGCTTA | 0.0818
31 | ATAAGGAT | 0.168
32 | CGTAATGA | 0.25
33 | TAATATGA | 0.036
34 | CGAGGGTA | -0.213
35 | ACTATACA | 0.124
36 | AGAGATGA | -0.128
37 | AGCAGAAA | -0.06
38 | ATGCTCAG | 0.15
39 | CATTAGCG | -0.278
40 | AGCGCATG | -0.0299
41 | CTCAATAC | 0.0854
42 | GTTCATGA | 0.103
43 | ATGAAGCA | -0.00353
44 | ACTTTGAC | 0.127
45 | TAGTCCCA | -0.21
46 | ACTAGAAA | 0.122
47 | AACCCAAC | -0.0432
48 | GATTCCTA | 0.0242
49 | TACGAGCA | -0.0744
50 | CGCTACCA | -0.19

Row | Sequence | PBM E-score
51 | AAACGAAC | 0.153
52 | GGAGATGA | 0.109
53 | GGTGATGA | -0.179
54 | CAACACCA | 0.123
55 | AACCAGCG | -0.132
56 | AGGGATAC | -0.0692
57 | CATTTTGC | -0.0152
58 | CATCAACC | 0.0442
59 | GGTCAACA | 0.103
60 | ACAAACAC | 0.156
61 | GTTGCTGA | 0.0332
62 | CCTTTTCC | 0.155
63 | CATATGTA | 0.318
64 | ATAGAGCA | 0.0372
65 | GTCAGGTA | 0.221
66 | GTATGTGA | 0.0776
67 | CGTAAACA | 0.292
68 | CTGTCCTC | -0.252
69 | GACGTAGC | -0.144
70 | ACGCTACG | 0.109
71 | CTTCATTA | 0.0663
72 | ATATTCTA | 0.0937
73 | CTACTTCC | -0.0353
74 | TAGTGATA | -0.0575
75 | CGAGGTAC | -0.172

Row | Sequence | PBM E-score
76 | AAATGGGC | -0.0266
77 | GGACCAAC | 0.0293
78 | CGACATGA | 0.269
79 | TAGCTTCA | -0.181
80 | AGCTGACG | -0.164
81 | GTGCATTA | 0.255
82 | GCAGCCTA | -0.0663
83 | TGTATACA | 0.332
84 | CGAATCCA | -0.0729
85 | ATTTAAGC | 0.0721
86 | AACATCGG | 0.0858
87 | AATAAGGG | 0.0357
88 | CTATCCAA | -0.169
89 | ACACCCAG | 0.148
90 | TCCCTTCA | -0.168
91 | AAACATTG | 0.152
92 | AGTAATTC | 0.203
93 | AGTCGAGC | -0.18
94 | AGAGAATA | -0.0675
95 | GGCACCTA | 0.357
96 | AGCATCTA | 0.0253
97 | CACATCGG | -0.129
98 | AAAGTACA | 0.184
99 | ACTTTGAT | -0.0322
100 | GAGTGTTA | 0.125

Row | Sequence | PBM E-score
101 | GGTGCTGA | -0.127
102 | AAAAATAG | 0.13
103 | AATGGTAC | -0.0386
104 | AGCCGTCC | -0.252
105 | ACATCCAC | 0.0696
106 | CTATGCGC | -0.069
107 | AGCTCCTA | -0.0687
108 | TCTCGCAA | -0.213
109 | GAGCATCA | -0.269
110 | GAGGGCTA | -0.288
111 | TCTGATCA | -0.153
112 | AGTAAGCA | -0.0219
113 | CAACCTTC | 0.0205
114 | GCTTTTCC | -0.0299
115 | AGCCCACT | -0.263
116 | ACCCGATA | -0.16
117 | CGGCGCGA | -0.0328
118 | CCACACAA | 0.11
119 | CGTGGTGA | -0.162
120 | ACTAGCAA | 0.0199
121 | CATCCAGA | -0.215
122 | GTCGTAGA | -0.0498
123 | AGCCCCCT | -0.311
124 | GCTGGTAC | -0.124
125 | CCACGCCA | 0.0519

Row | Sequence | PBM E-score
126 | CTTGTAGC | 0.0944
127 | ACGCGGAC | 0.113
128 | GGCACTAA | 0.339
129 | CGGCAAGA | -0.115
130 | ACGGTGCT | -0.255
131 | CCGGGTCG | -0.102
132 | CGACGCGA | -0.113
133 | GGCTCAGA | -0.0655
134 | GGCATCCC | -0.0611
135 | ACCGGATG | -0.129
136 | AGGATGAT | 0.0239
137 | CAGTCGCG | -0.209
138 | GGACACAA | 0.0871
139 | CCTACCAC | 0.104
140 | ATAGCGGG | -0.113
141 | CATCATAG | -0.056
142 | GGATGTCA | 0.136
143 | CCGTGAGA | -0.219
144 | CTCTGCTA | -0.266
145 | ACGCAGTA | 0.0934
146 | ATCTTGCG | -0.27
147 | ATGCTCAA | -0.152
148 | CACGTTTC | 0.22
149 | ATCACTGG | -0.0561
150 | GTGTTAAC | 0.352

Row | Sequence | PBM E-score
151 | TCGTAGCA | -0.0339
152 | CGCCCACC | -0.177
153 | TATAGTGA | -0.156
154 | ACTTAAAT | 0.0718
155 | ACTGTAAG | 0.0605
156 | GCCCTACA | -0.0323
157 | ACTTAGAC | 0.103
158 | ATAAAGAT | 0.0679
159 | AGCTTGTA | 0.286
160 | GGAGAGAC | -0.226
161 | ATGGGAAC | -0.173
162 | CCCTATCG | -0.125
163 | ATTCCGAA | -0.0341
164 | CACGGAAC | 0.0699
165 | CGTCCTTC | -0.126
166 | TCTAGCAA | 0.0164
167 | CGTATAGA | -0.0185
168 | AGAAAGGC | 0.222
169 | GCATCTAA | -0.0691
170 | ACTTAGTC | -0.0941
171 | CTATAAGC | 0.09
172 | CAGGTACG | 0.409
